Some of the results follow. Further columns of the screen follow, without active or inactive calls.
Key:
Assay in all cases: Primary Screen for Target Class Profiling of Small Molecule Inhibitors of Methyltransferases
[1] = target: Glycine N-methyltransferase (Homo sapiens) (UniProt Q14749); settings: purified enzyme, MTase-Glo SAH luminescence; measured here: GNMT inhibition; at 40 µM; stronger effect = lower value
Outline: (§1)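 Each enzyme was assayed with SAM and its substrate. SAH formation detected by MTase-Glo luminescence; single-point 40 uM screen[…].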

[2] = target: Guanidinoacetate N-methyltransferase (Homo sapiens) (UniProt Q14353); settings: purified enzyme, MTase-Glo SAH luminescence; measured here: GAMT inhibition; at 40 µM; stronger effect = lower value
Outline: as §1

[3] = target: Histamine N-methyltransferase (Homo sapiens) (UniProt P50135); settings: purified enzyme, MTase-Glo SAH luminescence; measured here: HNMT inhibition; at 40 µM; stronger effect = lower value
Outline: as §1

[4] = target: Nicotinamide N-methyltransferase (Homo sapiens) (UniProt P40261); settings: purified enzyme, MTase-Glo SAH luminescence; measured here: NNMT inhibition; at 40 µM; stronger effect = lower value
Outline: as §1

[5] = target: Phenylethanolamine N-methyltransferase (Homo sapiens) (UniProt P11086); settings: purified enzyme, MTase-Glo SAH luminescence; measured here: PNMT inhibition; at 40 µM; stronger effect = lower value
Outline: as §1
On the % scale 0 is the no-effect control and ±100 the full control effect.

Row | SMILES | activity change, negative = inhibition [1] [%] | activity change, negative = inhibition [2] [%] | activity change, negative = inhibition [3] [%] | activity change, negative = inhibition [4] [%] | activity change, negative = inhibition [5] [%]
1 | COCCOCC(=O)N1CCCN(Cc2ccncc2)C(c2ccccc2)CC(=O)NCC1 (stereo not given) | -7.68 | -10.1 | -6.39 | -15.2 | -6.61
2 | CCCn1c(=O)c2ccc(C(=O)NC3CCCC3)cc2n2c(=O)n(CC(=O)Nc3ccc(CC)cc3)nc12 | 3.39 | 0 | 6.27 | 3.6 | 4.32
3 | CCC(C)NC(=O)c1ccc2c(=O)n(C)c3nn(Cc4ccc(Cl)cc4)c(=O)n3c2c1 (stereo not given) | -1.09 | 0.563 | 5.56 | -4.03 | 1.42
4 | CCc1cccc(N2C(=O)c3c(C(=O)OC)ncn3CC2(C)C(=O)NC2CCCCC2)c1 (stereo not given) | 3.89 | 0 | 3.71 | 9.38 | 4.11
5 | Cc1ccccc1CN1C[C@H](O)C[C@H]1c1nc(C2CC2)no1 | -1.59 | -2.16 | 0.909 | -8.36 | -2.08
6 | CCOCCCNc1nc2c(-c3ccc(Cl)cc3)nnn2c2ccccc12 | 4.03 | 0.318 | 10.3 | 12.8 | 1.63
7 | O=C(OCc1ccccc1O[C@@H]1O[C@H](CO)[C@@H](O)[C@H](O)[C@H]1O)C1(O)C=CCCC1O (stereo not given in full) | 2.57 | 3.58 | 7.03 | -9.49 | 6.11
8 | COc1ccc2cc3n(c2c1)CC(C)(C(=O)NC1CCCCC1)N(Cc1cccnc1)C3=O (stereo not given) | 2.56 | 4.94 | 7.32 | 1.36 | 2.19
9 | CCC(C(=O)NCc1ccc(F)cc1)n1ccc2cc(S(=O)(=O)N3CCCCC3)ccc21 (stereo not given) | 9.49 | 0.976 | 7.7 | 8.27 | 7.18
10 | Brc1cc2c(cc1[C@H]1Nc3ccccc3[C@H]3C=CC[C@H]31)OCO2 | -0.735 | 10.5 | 4.56 | -8.67 | 1.57
11 | COc1ccc(CNC(=O)Cn2ccc3cc(S(=O)(=O)N4CCC(C)CC4)ccc32)cc1OC | -4.77 | 4.92 | -1.51 | -0.598 | 2.63
12 | Cc1ccc(NC(=O)CSc2nnc3n(CCC(C)C)c(=O)c4ccccc4n23)cc1C | -4.83 | 3.71 | 3.44 | 0.681 | 0.334
13 | Cc1cccc(CN2C(=O)c3ccc(-c4ccco4)n3CC2(C)C(=O)NC2CCCCCCC2)c1 (stereo not given) | -16 | 4.55 | -10.5 | -18.3 | -3.75
14 | Cc1nc(C)c(C(=O)N2CCC(Cc3nc(C4CC4)n[nH]3)CC2)s1 | -2.65 | -1.53 | 0.765 | 0.36 | -2.67
15 | CCOCCCN1C(=O)c2cc3oc(C)cc3n2CC1(C)C(=O)NC1CCCCCC1 (stereo not given) | 3.72 | 1.52 | 9.82 | 0.619 | 2.47
16 | O=C(NCCCCCCNC(=O)c1cccnc1)c1cccnc1 | -1.74 | 1.14 | 1.21 | 5.86 | -5.56
17 | COc1ccc(-c2cc3n(n2)CC(C)(C(=O)NCc2ccccc2)N(c2ccc(C)c(Cl)c2)C3=O)cc1 (stereo not given) | 4.34 | 0.995 | 6.21 | 4.33 | 0.577
18 | O[C@@H]1CCN(Cc2nc(C3(O)CCN(Cc4ccccc4F)CC3)cs2)C1 | -2.84 | -4.12 | -3.51 | -8.19 | -7.69
19 | CC(C)NC(=O)N1CCC(Oc2ccccc2)C1 (stereo not given) | -2.47 | -6.96 | -8.45 | -18.9 | -3.78
20 | COc1ccc(CNC(=O)CCc2nnc3n(Cc4ccc(F)cc4)c(=O)c4ccccc4n23)cc1 | -10.3 | 3.03 | -3.99 | -0.199 | -8.75

Row | SMILES | activity change, negative = inhibition [1] [%] | activity change, negative = inhibition [2] [%] | activity change, negative = inhibition [3] [%] | activity change, negative = inhibition [4] [%] | activity change, negative = inhibition [5] [%]
21 | COCCNC(=O)Cn1c(=O)oc2cc(S(=O)(=O)N3CC(C)CC(C)C3)ccc21 (stereo not given) | 0.718 | 0 | 4.28 | 15.6 | 1.51
22 | C=Cc1ccc(Cn2nc3n(CCC(C)C)c(=O)c4ccc(C(=O)NC(C)CC)cc4n3c2=O)cc1 (stereo not given) | -5.4 | 4.91 | -0.078 | -6.3 | 1.39
23 | CCOC(=O)c1cc2n(n1)CC(C)(C(=O)NC1CCCCCC1)N(c1cccc(SC)c1)C2=O (stereo not given) | -0.633 | 0 | -4.67 | -4.38 | 2.79
24 | NC1CCc2n[nH]c(=O)n2CC1 (stereo not given) | -3.7 | -2.25 | -1.49 | -2.63 | 6.28
25 | CN(C)C(=O)N1CCC2(CC1)CC(c1cccc(C(F)(F)F)c1)=NO2 | -5.04 | 0.91 | -1.12 | -2.13 | -7.51
26 | COc1c2c(c(C)c3c1C(=O)OC3)OC1(C)CC(O)C34OC(OC)(CCC3(C)C1C2)OC4(C)CO (stereo not given) | -3.27 | 3.53 | 1.44 | -18.1 | 1.42
27 | COc1ccccc1CCC(=O)N1CCCC(c2[nH]ccc2C(N)=O)C1 (stereo not given) | -0.198 | 2.93 | 0.758 | -6.33 | 11.8
28 | c1ccc(CC2=NOC3(CCCN(Cc4ccns4)C3)C2)cc1 (stereo not given) | -7.35 | -15.3 | -7.78 | -11 | -3.49
29 | C=C(C)C1CCC2(C(=O)OC3OC(COC4OC(CO)C(O)C(O)C4O)C(OC4OC(C)C(O)C(O)C4O)C(O)C3O)CCC3(C(=O)O)C(CCC4C5(C)CCC(=O)C(C)(C)C5CCC43C)C12 (stereo not given) | 3.26 | 5.29 | 2.5 | -9.27 | 5.45
30 | C/C1=C\CC[C@]2(C)O[C@H]2C(=O)c2c(C)coc2C1 | -8.52 | -9.78 | 4.58 | -19.8 | -0.795
31 | COc1cc(Nc2ccc([N+](=O)[O-])cc2C(=O)O)cc2ccccc12 | -20 | -3.38 | 6.13 | -37.3 | -4.27
32 | CC1CCCCC1NC(=O)C1(C)Cn2c(cc3sccc32)C(=O)N1C1CCCCCC1 (stereo not given) | -1.54 | 4.66 | -2.24 | -6.29 | -5.9
33 | Cc1cc(C)cc(N2CCC(NS(=O)(=O)c3cn(C)c(C)n3)C2=O)c1 (stereo not given) | -7.95 | -13.3 | -8.16 | -16.1 | -16.9
34 | COCCCN1C(=O)c2cc3ccc(OC)cc3n2CC1(C)C(=O)NC1CCCCC1 (stereo not given) | 2.69 | 3.28 | 1.73 | 0.588 | 0.671
35 | Cn1cc(C(F)(F)F)nc1-c1ccc(OCC(O)CNCCOc2ccc(O)c(C(N)=O)c2)cc1 (stereo not given) | -12.3 | 8.95 | -8.73 | -19.5 | 2.12
36 | CC(=O)OC1CC(C(C)(C)O)OC2CCC3(C)OC4=C(C(=O)C=C5C(C)C(OC(C)=O)C6(C)C(C)OC546)C(O)C3C12C (stereo not given) | 2.16 | -2.4 | 4.92 | -12.7 | -7.97
37 | Cc1cc(C(=O)N2CC[C@H](NS(=O)(=O)c3cn(C)cn3)C[C@H]2C(=O)N[C@H](Cc2c[nH]c3ccccc23)C(N)=O)n(C)n1 | -1.69 | -5.43 | -2.21 | -2.17 | -0.358
38 | O=c1[nH]c2ccc(S(=O)(=O)NCc3ccccc3Cl)cc2[nH]1 | 9.95 | 0 | 7.96 | -2.3 | -7.89
39 | C=CC1(C)CC=C2C(CCC3C(C)(C(=O)O)CCCC23C)C1 (stereo not given) | -1.55 | -1.72 | 8.11 | -31.7 | -7.67
40 | O=C(Cn1ccc2cc(S(=O)(=O)N3CCCCC3)ccc21)NCCCN1CCCCC1 | -1.73 | 1.97 | -35.1 | -3.65 | -2.06

Row | SMILES | activity change, negative = inhibition [1] [%] | activity change, negative = inhibition [2] [%] | activity change, negative = inhibition [3] [%] | activity change, negative = inhibition [4] [%] | activity change, negative = inhibition [5] [%]
41 | COCCCN1C(=O)c2c(NC(C)=O)c3cc(OC)ccc3n2CC1(C)C(=O)NC1CCCCCC1 (stereo not given) | -2.69 | 3.6 | 1.03 | -1.2 | -1.27
42 | Cn1c2c(c3ccccc31)C(C(=O)NCc1ccc(F)cc1)N(c1cccc(C(F)(F)F)c1)C(=O)CS2 (stereo not given) | 1.81 | 0 | 11.2 | 0.729 | 7.37
43 | CCCn1c(=O)c2ccc(Cl)cc2n2c(=O)n(CC(=O)N3CCN(c4ccc(F)cc4)CC3)nc12 | -3.77 | -5.02 | 9.29 | -9.98 | -5.8
44 | CCS(=O)(=O)N[C@@H]1CN(C2CCOCC2)C[C@H]1CN(C)C | -4.12 | 0.932 | -0.39 | -2.33 | 5.57
45 | CC(C)(C)c1ccc(S(=O)(=O)Nc2ccc(Cl)cc2C(=O)c2cc[n+]([O-])cc2)cc1 | 3.32 | 7.4 | 4.35 | -16.2 | 0.224
46 | CN(CC1CCOCC1)C(=O)NCc1ccco1 | -0.087 | 0.022 | 1.1 | 1.23 | 3.46
47 | CC1(C(=O)NC2CCCCCC2)Cn2c(ccc2-c2ccco2)C(=O)N1CCc1ccc(Cl)cc1 (stereo not given) | -2.54 | 4.94 | 4.49 | -2.83 | 0.305
48 | Cc1cccc(NC(=O)N2CCn3cccc3C2C(C)C)c1C (stereo not given) | 15.9 | 0 | 8.04 | 8.43 | 8.52
49 | CCOc1ccc2cc(-c3nnc(Nc4ccccc4)s3)c(=O)oc2c1 | 3.69 | -1.25 | -0.456 | 5.89 | -4.04
50 | CC(=O)OCC(Cc1ccccc1)NC(=O)C(Cc1ccccc1)NC(=O)c1ccccc1 (stereo not given) | 4.14 | -3.25 | 5.94 | -10.6 | 0.944
51 | COc1ccc(-c2cnc(Nc3ccc(CN4CCN(C)CC4)cc3)c3c2CCO3)cn1 | -15 | -7.9 | -39.2 | -13.5 | -8.49
52 | O=[S+]1([O-])NCC2(CCN(Cc3ccccn3)CC2)Nc2ccccc21 | -0.697 | 0.073 | 1.33 | -1.33 | 2.34
53 | CC1CCC(NC(=O)C2(C)Cn3c(cc4occc43)C(=O)N2CCCN2CCOCC2)CC1 (stereo not given) | 4.43 | 1.09 | 7.76 | 7.35 | 3.86
54 | CCCn1c(=O)c2ccc(C(=O)NCC(C)C)cc2n2c(=O)n(CC(=O)c3ccc(OCC)cc3)nc12 | 6.7 | 2.77 | 11.1 | 2.57 | 8.18
55 | CCCn1c(=O)c2cc(F)ccc2n2c(SCC(=O)Nc3ccccc3F)nnc12 | -3.83 | 2.81 | 4.15 | -2.54 | -0.77
56 | Cc1cnc(-c2ccncc2)n1CCNC(=O)NCc1ccc(F)cc1 | 2.53 | 0.278 | 1.9 | -0.206 | 0.71
57 | COc1ccc(C(=O)N2CCC(C3CCN(S(C)(=O)=O)CC3)C2)cn1 (stereo not given) | -6.92 | -6.22 | -5.35 | -11.5 | -8.65
58 | CN1CCN([C@H]2[C@@H]3OC[C@@H](O3)[C@@H](NC(=O)Nc3ccccc3)[C@@H]2O)CC1 | -2.69 | -3.39 | -0.023 | -8.25 | -5.36
59 | CCCn1c(=O)c2ccccc2n2c(SCC(=O)Nc3cc(OC)cc(OC)c3)nnc12 | 8.23 | 0.058 | 9.17 | 7.11 | 4.5
